Source: PubChem BioAssay AID1159614 (National Center for Advancing Translational Sciences (NCATS), 2016)
The whole screen tested about 45,000 compounds, of which about 65 (0.1%) were called active. The call rests on the fitted dose curve; in most records, active means well fitted activation curve with a large enough effect; inconclusive means small, poorly fitted or top-dose-only effect; inactive means no such curve, though single readings can be large or run the other way. The list shows a part of the results.

Molecular target: Galactocerebrosidase (Homo sapiens) (UniProt P54803)
Test: A Novel Cell-Based Assay to Identify Small Molecules for B -Galactocerebrosidase; further: 0% is about no effect; nearly all actives have a fitted effect of over 65% in size
Conditions: 145M-Twi-hGALC-G270D cells (Twitcher mouse brain line with human GALC G270D), HMU-beta-Gal fluorescence, 48 h; series mostly up to 57.5 µM; activation: at the top concentration
In short: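 Fluorescence readout: HMU-β-gal cleavage by mutant GALC (0.1 mM final, citrate/phosphate pH 5.2 with 1 mg/mL taurocholate), stopped with carbonate/bicarbonate plus Triton X-100. Cells: murine Twitcher 145M-Twi expressing human G270D GALC; qHTS for activators.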

Sequence of UniProt P54803 (P54803 whole entry, looked up): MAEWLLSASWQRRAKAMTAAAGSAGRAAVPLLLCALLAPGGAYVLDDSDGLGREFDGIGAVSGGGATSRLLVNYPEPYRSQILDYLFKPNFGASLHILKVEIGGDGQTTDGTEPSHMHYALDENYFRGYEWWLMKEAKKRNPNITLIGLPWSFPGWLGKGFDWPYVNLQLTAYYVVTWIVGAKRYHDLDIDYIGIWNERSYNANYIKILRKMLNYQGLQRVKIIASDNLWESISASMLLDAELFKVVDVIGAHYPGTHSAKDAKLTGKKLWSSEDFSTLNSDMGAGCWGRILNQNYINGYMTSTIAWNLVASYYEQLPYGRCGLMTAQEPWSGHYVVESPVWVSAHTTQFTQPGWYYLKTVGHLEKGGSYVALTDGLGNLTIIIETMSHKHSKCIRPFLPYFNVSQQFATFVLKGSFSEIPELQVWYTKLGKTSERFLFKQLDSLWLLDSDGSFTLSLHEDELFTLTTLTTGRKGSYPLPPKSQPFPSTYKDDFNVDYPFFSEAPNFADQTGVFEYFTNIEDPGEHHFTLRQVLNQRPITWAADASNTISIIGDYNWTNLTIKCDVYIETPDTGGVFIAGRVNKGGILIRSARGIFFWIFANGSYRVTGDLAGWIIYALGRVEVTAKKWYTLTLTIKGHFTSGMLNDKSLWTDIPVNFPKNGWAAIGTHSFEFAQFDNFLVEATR

activation, inactive:
Cc1ccc(NC(=O)Cn2c(=O)n(Cc3ccco3)c(=O)c3sc4ccccc4c32)c(C)c1 -8.64%
CC(C)(C)OC(=O)N1CCC(c2c(C(=O)N3CCN(c4ccccn4)CC3)cnn2-c2cccc(F)c2)CC1 -7.6%
Cc1ccc(S(=O)(=O)c2nnn(CC(=O)Nc3ccccc3C)c2N)cc1 -9.51%
COc1ccc(-n2nc(C(=O)N3CCCCC3)c3c4ccccc4n(C)c3c2=O)cc1Cl -11.5%
CCOC(=O)c1cc(-c2ccccc2)n(CCC(=O)NCCc2ccc(C)cc2)c1C -9.34%
O=C(CSc1nccn1Cc1ccccc1)Nc1nc2ccccc2s1 3.84%
COc1ccc(OC)c(NC(=O)COCc2cc(-c3ccco3)on2)c1 -8.5%
O=C(Nc1cccc(C(F)(F)F)c1)c1cc2nc(-c3ccco3)cc(C(F)(F)Cl)n2n1 -14.8%
Cc1cc(C)c(Cn2c(=O)n(Cc3ccccc3)c(=O)c3c(C)c(C)sc32)c(C)c1 -14%
COc1ccc2c(c1)c1c(c(=O)n(-c3cccc(Cl)c3)c(=O)n1CC(=O)NCC1CCCO1)n2C (stereo not given) -14.5%
CCOc1ccc(NC(=O)CSC2=Nc3ccccc3C3=NC(CCC(=O)NCc4cccs4)C(=O)N23)cc1 (stereo not given) -1.25%
CCOc1ccc(-c2nnc(SCC(=O)NCc3ccc(C)cc3)nc2-c2ccc(OCC)c(OC)c2)cc1OC -14.3%
CCOc1ccc(-n2cc(-c3ccccc3)c3c(NC4CCCCC4)ncnc32)cc1 -2.22%
Cc1nn(-c2ccccc2)c(OC(=O)c2ccccc2Cl)c1S(=O)(=O)c1ccccc1 -7.6%
CC(CNC(=O)c1nnc(Cc2cccc(F)c2)o1)c1ccccc1 (stereo not given) -17.3%
COc1cc(CNCCSc2nnnn2C)ccc1OCc1ccc(F)cc1 -5.39%
CCOC(=O)c1[nH]c(C)c(CCC(=O)Nc2cccc(C(F)(F)F)c2)c1C -13.6%
CCc1nn2c(=O)cc(COC(=O)c3ccccc3NC(=O)COc3ccc(F)cc3)nc2s1 -18.3%
COCCNC(=O)Cn1cnc2sc(C)c(S(=O)(=O)N3CCN(c4ccccc4OC)CC3)c2c1=O -11.2%
CCC(NC(=O)Nc1ccc(OC)c(OC)c1)c1c(-n2cccc2)sc2c1CCN(C)C2 (stereo not given) -23.3%
CC(=O)c1cccc(NC(=O)[C@H](Cc2ccccc2)N2Cc3ccccc3C2=O)c1 1.35%
COc1ccc(N2CC(NC(=O)C3CC3)CC2=O)cc1 (stereo not given) -6.7%
COc1ccccc1C(=O)NCCSc1c(C)[nH]c2ccccc12 -4.61%
Cc1cccc(NC(=O)C2CCCN(S(=O)(=O)c3c(C)[nH]c(=O)[nH]c3=O)C2)c1C (stereo not given) 5.49%
COc1ccc(-c2nc3ccccc3o2)cc1NC(=O)C(C)(C)Oc1ccc(Br)cc1 -13.5%
O=c1oc2ccc3ccccc3c2cc1-c1nnc(Nc2ccc(Cl)cc2Cl)s1 -0.798%
COc1cccc(NC(=O)CSc2nc(=O)n(Cc3ccccn3)c3c2CCC3)c1 -3.31%
CCc1ccc(NC(=O)Cn2c(=O)c(CNc3ccccc3)cc3cc(OC)c(OC)cc32)cc1 -9.41%
COc1ccc(CCNC(=O)c2ccc3c(c2)N=C(C)c2cc(C)ccc2S3)cc1OC -7.1%
O=C(Cn1c(=O)oc2cc(S(=O)(=O)N3CCCC3)ccc21)NCc1ccc(Cl)cc1 -25.3%
O=c1oc2ccccc2n1CCCOc1ccccc1Cl -8.34%
COc1cccc(N2CCN(C(=O)CCS(=O)(=O)c3ccc4c(c3)CC(=O)N4C)CC2)c1 -12.3%
COc1ccc(NC(=O)Cn2c(=O)n(-c3cccc(C)c3)c(=O)c3c2c2cc(C)ccc2n3C)cc1Cl 7.63%
CCOc1cc2sc(N3CCC(C(=O)Nc4ccccc4C(=O)OC)CC3)nc2cc1Br -10.4%
O=C(C1CCC(CNS(=O)(=O)c2ccc(Br)s2)CC1)N1CCN(c2ccccc2Cl)CC1 (stereo not given) -14.6%
CCOCCCNC(=O)c1cc2c(=O)n(C)c3ccccc3c2n1C 1.4%
Cc1ccc(NC(=O)c2cn3c4c(ccc(Cl)c4c2=O)OC(C)C3)cc1C (stereo not given) -15.2%
CCN(CC)C(=O)Cn1c(=O)n(Cc2ccc(C(=O)NCc3ccc(C)cc3)cc2)c(=O)c2ccccc21 0.268%
Cc1ncc(CO)c2c1Oc1nc(-c3ccccc3)nc(SCC(=O)N3CCCCC3)c1C2 -13.4%
CS(=O)(=O)N1CCc2cc(C(=O)Nc3ccc(Cl)c(C(F)(F)F)c3)ccc21 -10.1%
Cc1nc(-c2ccc(OCC(C)C)c(C#N)c2)sc1C(=O)O -6.72%
CCOc1ccccc1NC(=O)Cn1c(=O)oc2cc(S(=O)(=O)NCc3ccccc3)ccc21 -0.228%
CN(C)c1ccc(CNC(=O)C2CCCN(S(=O)(=O)c3ccc4c(ccn4C)c3)C2)cc1 (stereo not given) -20.7%
COc1ccc(C(=O)Nc2cc(-c3ccccc3)nn2-c2ccccc2)cc1 -11%
CCOC(=O)c1sc(NC(=O)C(C)Oc2ccc(OC)cc2)c(C(=O)OCC)c1C (stereo not given) -10.9%
O=C(COCc1cc(-c2cccs2)on1)Nc1cc(Cl)ccc1O -17.9%
COc1ccc(C)cc1NC(=O)CN1C(=O)COc2ccc(S(=O)(=O)N3CCOCC3)cc21 -2.99%
Cc1ccc(NC(=O)COc2ccc(-c3nn(C)c(=O)c4ccccc34)cc2)cc1 -14.1%
CCOC(=O)c1cccc(NC(=O)c2cc3cc4cc(OC)ccc4nc3s2)c1 -25.3%
CC1=Nc2cc(C(=O)NCc3ccc(C)cc3)ccc2Sc2ccc(Cl)cc21 -5.87%
CCN1CCC(N(Cc2cccc(OC)c2)C(=O)Nc2cccc(C)c2C)CC1 8.6%
COc1ccc(C2N=C(N)Nc3nc4ccccc4n32)c(OC)c1OC (stereo not given) -10.1%
COC(=O)C1=C(C)NC(=O)C1(NC(=O)c1ccc(Cl)cc1)C(F)(F)F (stereo not given) -8.4%
Cc1cc(=O)c2cc(C(=O)Nc3ccc(F)cc3)ccc2[nH]1 -13.2%
CCOC(=O)N1CCN(S(=O)(=O)N2CCCC(C(=O)NCc3cc(Br)ccc3OC)C2)CC1 (stereo not given) -9.19%
CCN1CCc2nc3sc(C(=O)Nc4ccccc4OC(F)(F)F)c(N)c3cc2C1 -6.57%
Cc1cc(C)c(NC(=O)CSC2=Nc3ccccc3C3=NC(CC(=O)NCc4cccs4)C(=O)N23)c(C)c1 (stereo not given) -13.7%
COc1cccc(Nc2nc3c(S(=O)(=O)c4cc(C)ccc4C)nnn3c3ccsc23)c1 0.851%
Cc1ccc(NC(=O)N2CCN(Cc3nc4ccc(C)cc4o3)CC2)cc1 -18.7%
O=C(CN1c2ccc(Br)cc2-c2ccccc2S1(=O)=O)N1CCCCC1 -12.8%
